Measurements reported in patent US7399749B2, “Substituted prolines as inhibitors of hepatitis C virus NS3 serine protease” (Schering Corporation, priority 2004, dated 2008).
pKi: −log10 of the molar value.

These compounds were tested against HCV NS3/NS4A protease (strain 1a) (Hepatitis C virus genotype 1a, UniProt P27958) (assay: Spectrophotometric assay for HCV protease inhibitory activity). Settings: recombinant heterodimeric NS3/NS4A protease, chromogenic ester substrates, 30° C., pH 6.5.
Type: biochemical
Source text: Assay for HCV Protease Inhibitory Activity:
Spectrophotometric Assay: Spectrophotometric assay for the HCV serine protease can be performed on the inventive compounds by following the procedure described by R. Zhang et al, Analytical Biochemistry, 270 (1999) 268-275, the disclosure of which is incorporated herein by reference. The assay based on the proteolysis of chromogenic ester substrates is suitable for the continuous monitoring of HCV NS3 protease activity. The substrates are derived from the P side of the NS5A-NS5B junction sequence (Ac-DTEDVVX(Nva), where X=A or P) whose C-terminal carboxyl groups are esterified with one of four different chromophoric alcohols (3- or 4-nitrophenol, 7-hydroxy-4-methyl-coumarin, or 4-phenylazophenol). Illustrated below are the synthesis, characterization and application of these novel spectrophotometric ester substrates to high throughput screening and detailed kinetic evaluation of HCV NS3 protease inhibitors. Materials and Methods:
Materials: Chemical reagents for assay related buffers are obtained from Sigma Chemical Company (St. Louis, Mo.). Reagents for peptide synthesis were from Aldrich Chemicals, Novabiochem (San Diego, Calif.), Applied Biosystems (Foster City, Calif.) and Perseptive Biosystems (Framingham, Mass.). Peptides are synthesized manually or on an automated ABI model 431A synthesizer (from Applied Biosystems). UV/VIS Spectrometer model LAMBDA 12 was from Perkin Elmer (Norwalk, Conn.) and 96-well UV plates were obtained from Corning (Corning, N.Y.). The prewarming block can be from USA Scientific (Ocala, Fla.) and the 96-well plate vortexer is from Labline Instruments (Melrose Park, Ill.). A Spectramax Plus microtiter plate reader with monochrometer is obtained from Molecular Devices (Sunnyvale, Calif.).
Protein concentrations are determined by the Biorad dye method using recombinant HCV protease standards previously quantified by amino acid analysis. Prior to assay initiation, the enzyme storage buffer (50 mM sodium phosphate pH 8.0, 300 mM NaCl, 10% glycerol, 0.05% lauryl maltoside and 10 mM DTT) is exchanged for the assay buffer (25 mM MOPS pH 6.5, 300 mM NaCl, 10% glycerol, 0.05% lauryl maltoside, 5 μM EDTA and 5 μM DTT) utilizing a Biorad Bio-Spin P-6 prepacked column. Substrate Synthesis and Purification: The synthesis of the substrates is done as reported by R. Zhang et al, (ibid.) and is initiated by anchoring Fmoc-Nva-OH to 2-chlorotrityl chloride resin using a standard protocol (K. Barlos et al, Int. J. Pept. Protein Res., 37 (1991), 513-520). The peptides are subsequently assembled, using Fmoc chemistry, either manually or on an automatic ABI model 431 peptide synthesizer. […] The combined filtrate and DCM wash is evaporated azeotropically (or repeatedly extracted by aqueous Na2CO3 solution) to remove the acid used in cleavage. The DCM phase is dried over Na2SO4 and evaporated.
The ester substrates are assembled using standard acid-alcohol coupling procedures (K. Holmber et al, Acta Chem. Scand., B33 (1979) 410-412). Peptide fragments are dissolved in anhydrous pyridine (30-60 mg/ml) to which 10 molar equivalents of chromophore and a catalytic amount (0.1 eq.) of para-toluenesulfonic acid (pTSA) were added. Dicyclohexylcarbodiimide (DCC, 3 eq.) is added to initiate the coupling reactions. Product formation is monitored by HPLC and can be found to be complete following 12-72 hour reaction at room temperature. Pyridine solvent is evaporated under vacuum and further removed by azeotropic evaporation with toluene. The peptide ester is deprotected with 95% TFA in DCM for two hours and extracted three times with anhydrous ethyl ether to remove excess chromophore.
Compound `CCCC(NC(=O)[C@@H]1C[C@@H](OC(=O)N2CCc3ccccc3C2)CN1C(=O)[C@@H](NC(=O)N[C@H](CN(C)S(=O)(=O)c1cccs1)C(C)(C)C)C(C)(C)C)C(=O)C(=O)NC1CC1` (stereo partly shown) [Example 101] has a pKi of 7.44.
Compound `CCCC(NC(=O)[C@@H]1C[C@@H](OC(=O)N2CCc3ccccc3C2)CN1C(=O)[C@@H](NC(=O)NC1(CS(=O)(=O)C(C)(C)C)CCCCC1)C(C)(C)C)C(=O)C(=O)NC1CC1` (stereo partly shown) [Example 102] has a pKi of 7.82.
`CCCC(NC(=O)[C@@H]1C[C@@H](OC(=O)N2CCc3ccccc3C2)CN1C(=O)[C@@H](NC(=O)N[C@H](CN(C)S(C)(=O)=O)C(C)(C)C)C(C)(C)C)C(=O)C(=O)NC1CC1` (stereo partly shown) [Example 103] was tested, and the pKi was 7.89.
Compound `C=CCNC(=O)C(=O)C(CCCC)NC(=O)[C@@H]1C[C@@H](OC(=O)N2CCc3ccccc3C2)CN1C(=O)[C@@H](NC(=O)N[C@H](CN(C)S(C)(=O)=O)C(C)(C)C)C(C)(C)C` (stereo partly shown) [Example 104] has a pKi of 7.80.
Work on `C=CCNC(=O)C(=O)C(CCC)NC(=O)[C@@H]1C[C@@H](OC(=O)N2CCc3ccccc3C2)CN1C(=O)[C@@H](NC(=O)N[C@H](CN(C)S(C)(=O)=O)C(C)(C)C)C(C)(C)C` (stereo partly shown) [Example 105] yielded a pKi of 8.05.
`CN(C[C@@H](NC(=O)N[C@H](C(=O)N1C[C@H](OC(=O)N2CCc3ccccc3C2)C[C@H]1C(=O)NC(CC1CC1)C(=O)C(N)=O)C(C)(C)C)C(C)(C)C)S(C)(=O)=O` (stereo partly shown) [Example 106] was tested, and the pKi was 8.22.
Compound `CN(C[C@@H](NC(=O)N[C@H](C(=O)N1C[C@H](OC(=O)N2CCc3ccccc3C2)C[C@H]1C(=O)NC(CC1CCC1)C(=O)C(N)=O)C(C)(C)C)C(C)(C)C)S(C)(=O)=O` (stereo partly shown) [Example 107] has a pKi of 8.30.
For `C=CCNC(=O)C(=O)C(CC1CC1)NC(=O)[C@@H]1C[C@@H](OC(=O)N2CCc3ccccc3C2)CN1C(=O)[C@@H](NC(=O)N[C@H](CN(C)S(C)(=O)=O)C(C)(C)C)C(C)(C)C` (stereo partly shown) [Example 108], the pKi was 8.15.
For `C#CCCC(NC(=O)[C@@H]1C[C@@H](OC(=O)N2CCc3ccccc3C2)CN1C(=O)[C@@H](NC(=O)N[C@H](CN(C)S(C)(=O)=O)C(C)(C)C)C(C)(C)C)C(=O)C(=O)NCC=C` (stereo partly shown) [Example 109], the pKi was 8.15.
With `C=CCNC(=O)C(=O)C(CC1CCC1)NC(=O)[C@@H]1C[C@@H](OC(=O)N2CCc3ccccc3C2)CN1C(=O)[C@@H](NC(=O)N[C@H](CN(C)S(C)(=O)=O)C(C)(C)C)C(C)(C)C` (stereo partly shown) [Example 110] the pKi was 8.22.
With `C=CCNC(=O)C(=O)C(CCC(F)(F)F)NC(=O)[C@@H]1C[C@@H](OC(=O)N2CCc3ccccc3C2)CN1C(=O)[C@@H](NC(=O)N[C@H](CN(C)S(C)(=O)=O)C(C)(C)C)C(C)(C)C` (stereo partly shown) [Example 111] the pKi was 8.22.
`CC(C)(C)[C@H](NC(=O)NC1(CS(=O)(=O)C(C)(C)C)CCCCC1)C(=O)N1C[C@H](OC(=O)N2CCc3ccccc3C2)C[C@H]1C(=O)NC(CC1CCC1)C(=O)C(N)=O` (stereo partly shown) [Example 112] gave a pKi of 8.24.
`CC(C)(C)[C@H](NC(=O)NC1(CS(=O)(=O)C(C)(C)C)CCCCC1)C(=O)N1C[C@H](OC(=O)N2CCc3ccccc3C2)C[C@H]1C(=O)NC(CC1CC1)C(=O)C(N)=O` (stereo partly shown) [Example 113] showed a pKi of 8.28.
`C=CCNC(=O)C(=O)C(CCC)NC(=O)[C@@H]1C[C@@H](OC(=O)N2CCc3ccccc3C2)CN1C(=O)[C@@H](NC(=O)NC1(CS(=O)(=O)C(C)(C)C)CCCCC1)C(C)(C)C` (stereo partly shown) [Example 114] was tested, and the pKi was 7.74.
In the case of `C=CCNC(=O)C(=O)C(CCCC)NC(=O)[C@@H]1C[C@@H](OC(=O)N2CCc3ccccc3C2)CN1C(=O)[C@@H](NC(=O)NC1(CS(=O)(=O)C(C)(C)C)CCCCC1)C(C)(C)C` (stereo partly shown) [Example 115], the pKi was 7.60.
`C=CCNC(=O)C(=O)C(CC1CC1)NC(=O)[C@@H]1C[C@@H](OC(=O)N2CCc3ccccc3C2)CN1C(=O)[C@@H](NC(=O)NC1(CS(=O)(=O)C(C)(C)C)CCCCC1)C(C)(C)C` (stereo partly shown) [Example 116] showed a pKi of 7.96.
Compound `C#CCCC(NC(=O)[C@@H]1C[C@@H](OC(=O)N2CCc3ccccc3C2)CN1C(=O)[C@@H](NC(=O)NC1(CS(=O)(=O)C(C)(C)C)CCCCC1)C(C)(C)C)C(=O)C(=O)NCC=C` (stereo partly shown) [Example 117] has a pKi of 8.10.
`C=CCNC(=O)C(=O)C(CC1CCC1)NC(=O)[C@@H]1C[C@@H](OC(=O)N2CCc3ccccc3C2)CN1C(=O)[C@@H](NC(=O)NC1(CS(=O)(=O)C(C)(C)C)CCCCC1)C(C)(C)C` (stereo partly shown) [Example 118] was tested, and the pKi was 7.80.
Work on `C=CCNC(=O)C(=O)C(CCC(F)(F)F)NC(=O)[C@@H]1C[C@@H](OC(=O)N2CCc3ccccc3C2)CN1C(=O)[C@@H](NC(=O)NC1(CS(=O)(=O)C(C)(C)C)CCCCC1)C(C)(C)C` (stereo partly shown) [Example 119] yielded a pKi of 7.92.
